# Source: the supplement of paper PMC3334620
# Whole data set: some 33,000 sequences, median “E-score (-0.5 to 0.5)” near -0.053, cut for the highest 2% near 0.37. The list shows a part of the results.
# Target: Hap1 (UniProt P0CE41)
# Assay: PBM E-score (8-mer binding enrichment) (E-score (-0.5 to 0.5)); higher = stronger / more preferred TF binding; most listed sequences are background and not binding sites
# Conditions: protein concentration: 200 nM; construct: GST-DNA-binding domain
# Experimental: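 Universal 'all 10-mer' protein binding microarrays (Agilent AMADID 015681) probed with GST-tagged S. cerevisiae TFs (full-length or DBD) made by in vitro transcription/translation (PURExpress), about 100-200 nM. Bound TF was detected with fluorescent anti-GST. Each ungapped 8-mer (which stands for itself and its reverse complement) is scored by the PBM enrichment score (E-score), a modified Wilcoxon-Mann-Whitney statistic from -0.5 to +0.5, computed with the Universal PBM Analysis Suite. Scale: above 0.35 generally sequence-specific binding.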
# Sequence of UniProt P0CE41 (P0CE41 whole entry): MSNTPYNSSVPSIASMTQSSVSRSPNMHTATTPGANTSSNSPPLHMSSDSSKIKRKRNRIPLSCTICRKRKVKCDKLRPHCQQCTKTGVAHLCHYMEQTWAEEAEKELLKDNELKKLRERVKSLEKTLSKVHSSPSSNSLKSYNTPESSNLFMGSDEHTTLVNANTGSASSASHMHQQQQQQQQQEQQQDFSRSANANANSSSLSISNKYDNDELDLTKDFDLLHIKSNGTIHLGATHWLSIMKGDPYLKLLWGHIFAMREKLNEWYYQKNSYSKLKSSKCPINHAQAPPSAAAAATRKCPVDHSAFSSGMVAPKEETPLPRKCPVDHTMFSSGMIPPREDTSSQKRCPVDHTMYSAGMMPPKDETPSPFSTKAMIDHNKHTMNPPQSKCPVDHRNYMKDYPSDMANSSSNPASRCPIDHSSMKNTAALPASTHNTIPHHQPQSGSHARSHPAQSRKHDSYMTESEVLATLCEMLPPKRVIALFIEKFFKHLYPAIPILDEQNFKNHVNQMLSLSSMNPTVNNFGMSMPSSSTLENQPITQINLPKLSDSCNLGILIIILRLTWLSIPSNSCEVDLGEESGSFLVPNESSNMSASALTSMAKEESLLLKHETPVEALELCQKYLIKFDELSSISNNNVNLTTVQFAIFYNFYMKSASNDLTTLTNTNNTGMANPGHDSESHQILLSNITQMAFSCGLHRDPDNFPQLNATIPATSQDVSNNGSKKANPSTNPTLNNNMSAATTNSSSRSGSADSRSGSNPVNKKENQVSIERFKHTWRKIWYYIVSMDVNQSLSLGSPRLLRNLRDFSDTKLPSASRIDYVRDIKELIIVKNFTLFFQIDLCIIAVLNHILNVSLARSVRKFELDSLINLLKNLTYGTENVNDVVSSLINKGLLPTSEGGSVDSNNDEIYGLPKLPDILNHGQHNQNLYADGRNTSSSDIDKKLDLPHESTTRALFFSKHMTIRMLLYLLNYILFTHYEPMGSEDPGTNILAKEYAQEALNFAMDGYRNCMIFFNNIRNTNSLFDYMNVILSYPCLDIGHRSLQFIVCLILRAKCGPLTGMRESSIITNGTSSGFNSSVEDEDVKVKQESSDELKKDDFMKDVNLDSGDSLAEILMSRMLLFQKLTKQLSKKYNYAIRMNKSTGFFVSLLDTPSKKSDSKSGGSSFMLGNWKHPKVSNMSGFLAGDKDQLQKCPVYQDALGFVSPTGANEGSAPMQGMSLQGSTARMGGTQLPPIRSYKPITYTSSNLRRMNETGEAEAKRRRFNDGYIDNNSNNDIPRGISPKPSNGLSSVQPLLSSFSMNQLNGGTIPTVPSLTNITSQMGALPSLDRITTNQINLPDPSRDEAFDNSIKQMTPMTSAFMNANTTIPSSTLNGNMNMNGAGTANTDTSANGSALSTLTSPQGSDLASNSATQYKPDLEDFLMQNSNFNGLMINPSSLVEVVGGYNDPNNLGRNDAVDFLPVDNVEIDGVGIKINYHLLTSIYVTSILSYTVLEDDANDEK
row,Sequence,PBM E-score
1,ATTTGAAC,0.128
2,ACACTGAC,-0.0473
3,CCCGCCAC,-0.00132
4,AAAGGGCG,-0.0369
5,TACGCCAA,-0.242
6,CGATACAC,0.104
7,CTTCGTCA,-0.234
8,CGCCGAGA,0.37
9,AATATATG,0.0844
10,AGTACTCC,0.061
11,CGTCAGCA,-0.115
12,ACACGGGC,0.206
13,AATTTTCT,-0.0201
14,AACAGTCT,-0.305
15,GATCTAAC,-0.0293
16,CAATTATA,-0.201
17,CGCCTTTA,0.0888
18,CGGTAGTA,0.206
19,CCAGTCTA,-0.174
20,GCTTGTGA,-0.252
21,GCTGCCTA,-0.086
22,ACGGGTGC,0.0022
23,AAATCTAC,0.0453
24,CACCTATG,0.0289
25,ACCTGTCA,-0.0953

row,Sequence,PBM E-score
1,GCGTGCTA,-0.285
2,ATAGATGG,-0.212
3,CTGCTCTA,-0.205
4,CATGTTCC,-0.0353
5,ACACCTAG,-0.169
6,CGGCACGA,0.0969
7,GATCTCTA,-0.212
8,CCTTCGAC,-0.318
9,CACGCTGC,-0.0969
10,ACTTAACG,0.0345
11,CAAGAGGC,-0.198
12,AGGTCCAC,-0.105
13,AAAGCGGT,0.0284
14,ATGTTCGC,-0.044
15,CAGTGTTC,-0.0181
16,AAATCTGT,-0.0739
17,AAAATAGT,-0.161
18,ATCTCGTC,0.0634
19,CCACTGCG,-0.0793
20,AGCCCAAG,-0.158
21,GAGCGGCC,0.139
22,ACAAGCGA,0.0693
23,CCTGATAC,-0.0985
24,CCCACAAA,-0.103
25,CTTACGGA,0.278

row,Sequence,PBM E-score
1,CGGAGAAG,0.378
2,AAATAGTG,-0.0937
3,AGTAAGAT,-0.0935
4,CTCCTGGC,0.0023
5,AACTCTCA,-0.326
6,GACTGGAA,-0.0348
7,CAGTGGGA,-0.128
8,CATCAAAC,-0.0945
9,GGGTTGGA,-0.0191
10,GATCTACA,0.00709
11,ACAGACCT,-0.0718
12,AGTACCCG,0.1
13,ACGGTTGA,-0.185
14,AAAATTCA,0.00988
15,CAAAGGTC,-0.148
16,AATCGGAT,0.337
17,CCAGTCGA,-0.121
18,GGGAACGA,-0.00532
19,AGTCTTCG,-0.0554
20,CCCTGTCA,-0.277
21,GGTTGTTA,-0.033
22,CGAACCAG,-0.00442
23,AATGCAAT,-0.372
24,ACCCTGGA,-0.195
25,AGGGCAGA,-0.367

row,Sequence,PBM E-score
1,TCTACCAA,-0.231
2,ATCGAGCG,0.139
3,CATTGCGC,-0.084
4,GGCACCAC,-0.014
5,AATTCCCT,-0.106
6,TAAGTATA,0.16
7,ATAGACCA,-0.129
8,TCCCCAGA,-0.251
9,ATCACCGA,0.417
10,GCGAGTAA,0.0815
11,GTGCACTA,0.00768
12,AAGGAAGG,-0.197
13,GCTGTCAA,-0.115
14,TCAGAACA,-0.14
15,CACTAGTC,-0.0967
16,CCCACGGG,-0.00611
17,ACCAGTGC,-0.229
18,AAGTGAGT,-0.229
19,CGGTAAGA,0.253
20,CAAGCTCC,0.00322
21,AACTGTGC,-0.323
22,ACGCCCAA,-0.133
23,CGGCTGGA,0.184
24,AGTAATAC,0.0132
25,AAAGTAAC,-0.0512

row,Sequence,PBM E-score
1,ACCTCTAG,-0.09
2,AGTGAATA,-0.169
3,GGCGCAAC,0.0767
4,AGGCGCCC,-0.0775
5,CGACAGTA,0.119
6,AACACACC,0.0322
7,ATATTGCC,0.0438
8,ACAAAGTA,-0.153
9,AGTACATC,-0.075
10,AAACACTA,-0.192
11,GTATACCA,-0.165
12,AAAAGGGA,-0.261
13,GACGCGTC,-0.2
14,CGGCTAAA,0.254
15,AAAAAGAT,-0.174
16,CTCCCCGC,0.204
17,AGGAAGTA,0.0541
18,AACATGCG,-0.138
19,CCTAACGA,-0.222
20,ACTAGAAG,-0.0436
21,GTTCCGTA,0.255
22,AGGATGCG,-0.181
23,AGTTTTAC,-0.0465
24,CTTGACCA,-0.35
25,CGCGTTGC,0.159

row,Sequence,PBM E-score
1,ATGGCACC,-0.0283
2,CGGGTGCC,0.227
3,TGTTTGAA,-0.202
4,AGAATTCG,-0.0961
5,GGGGGTCA,-0.0392
6,ACGTGGTG,-0.01
7,GGCCCCGA,0.21
8,GAACCAGA,-0.206
9,AGATAGAG,-0.0872
10,CAAGTTCC,0.124
11,ACGCATCA,-0.125
12,CAGTTGAA,-0.212
13,ACTGTAAC,-0.139
14,AAGTAGCG,-0.129
15,CGGTCAAG,0.238
16,GTAAGAGA,-0.197
17,CTGGGTTC,-0.0233
18,AGGAGACA,-0.119
19,ACCTTTAT,-0.16
20,GCGTACCC,0.0225
21,CAATTCGC,0.14
22,GCATCGGC,0.225
23,GGCGGAGA,0.36
24,GTCTAAGA,-0.105
25,GTAGGTTA,-0.0501

row,Sequence,PBM E-score
1,GTAATGAC,0.0337
2,GTTTTACA,-0.149
3,CTCTATTC,-0.0238
4,ATCCACGC,-0.239
5,CACTGCGA,-0.0992
6,ACGTGCTA,-0.249
7,CTTCTCAA,-0.141
8,CTCGCCGC,0.146
9,CGTAGAGA,-0.291
10,AACCCGAG,0.317
11,CGATATAC,0.332
12,GGTCCCTA,-0.119
13,ACCGGAGA,0.43
14,GCCCTCAA,-0.0889
15,CTGTCGTA,-0.0531
16,CGCGTTGA,-0.0929
17,CCGAAGAC,0.255
18,CTCTAGCC,-0.0745
19,ATCCAGGC,-0.185
20,GGAAGCCC,0.157
21,ATGATCAG,-0.23
22,GAGTATCA,-0.106
